# Measured values as given in the BET-seq Pho4 binding data (Le et al. 2018).
# The list shows a part of the results. These are noisy estimates, calculated here from bound and input reads.
# Molecular target: T1, Pho4 (S. cerevisiae) (UniProt P07270)
# T1 sequence: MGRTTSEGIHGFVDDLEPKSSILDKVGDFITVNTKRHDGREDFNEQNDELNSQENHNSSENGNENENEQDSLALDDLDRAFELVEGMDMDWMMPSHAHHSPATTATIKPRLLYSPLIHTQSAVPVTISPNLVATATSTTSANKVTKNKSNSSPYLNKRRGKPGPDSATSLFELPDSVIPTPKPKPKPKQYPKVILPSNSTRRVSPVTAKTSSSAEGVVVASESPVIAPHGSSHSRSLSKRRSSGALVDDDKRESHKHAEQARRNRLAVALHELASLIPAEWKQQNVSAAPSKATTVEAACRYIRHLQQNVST
# Test: relative binding free energy (BET-seq); higher = weaker binding
# Settings: reference: library average
row,Sequence,relative binding free energy [kcal/mol]
1,AGACTCACGTGTGGTT,0.39
2,TTGATCACGTGAGAGC,0.4
3,TGCTACACGTGTTATT,0.07
4,ATGATCACGTGGGGTG,0.02
5,TGGTTCACGTGGTCCT,0.33
6,GTGGGCACGTGGGAGC,-0.08
7,AAGGGCACGTGTAAGT,0.02
8,TTCGTCACGTGGTGGG,0.1
9,TTTTACACGTGGGCAG,0.06
10,TTGAGCACGTGGATAA,-0.09
11,CTGAACACGTGGAAGG,0.21
12,AGGACCACGTGAGGTG,0.15
13,TTAGTCACGTGGCTCT,0.02
14,GACGCCACGTGGGAGG,0.03
15,ACCTGCACGTGGTGGT,-0.18
16,AATTGCACGTGTCTTG,0.11
17,CTATGCACGTGGATGG,-0.18
18,TTATTCACGTGCATAT,0.18
19,TACTTCACGTGGGATG,0.08
20,CGTTACACGTGCGGGC,0.21
21,GGGTTCACGTGGAGTT,0.42
22,TCTGACACGTGATGTA,0.12
23,GGGTTCACGTGTAGAC,0.31
24,AATCGCACGTGGTTAT,-0.02
25,GTTTACACGTGAACTT,0.4
26,GGTTTCACGTGTAATT,0.47

row,Sequence,relative binding free energy [kcal/mol]
1,ATACGCACGTGAGTTT,0.13
2,TGAAACACGTGGTTCG,0.01
3,TCAAGCACGTGTTGGG,0.02
4,GAGGGCACGTGAAGAG,0.3
5,AGTTACACGTGGATGT,0.14
6,AGGTTCACGTGTGAGT,0.34
7,TGATTCACGTGGCCTT,0.23
8,GTAGCCACGTGGGTTG,-0.19
9,TTTGGCACGTGGATAA,-0.13
10,TAGGGCACGTGTGCTA,-0.15
11,TGTCTCACGTGTGATA,0.31
12,CTATGCACGTGGAAGG,0.03
13,TGCTACACGTGTGGTG,0.12
14,TTAGGCACGTGTGTGA,-0.01
15,TCGGGCACGTGAGATT,0.04
16,TAATGCACGTGCGGTG,-0.11
17,TCTTGCACGTGTAGGT,-0.04
18,GTATTCACGTGGGTAA,0.28
19,TGAAGCACGTGCGCGT,-0.11
20,ATGTGCACGTGATCTG,0
21,GTTCTCACGTGGCGGG,0.3
22,TAGTACACGTGTGGTG,0.1
23,TGTTTCACGTGAAAGT,0.34
24,AATGTCACGTGGCGTA,0.01
25,GGTGTCACGTGGGTCG,0.04
26,TGCGTCACGTGTTTTA,0.09

row,Sequence,relative binding free energy [kcal/mol]
1,CAAGTCACGTGGGTGA,-0.08
2,TAACGCACGTGGGTGT,-0.3
3,ATTGTCACGTGAAAAG,0.42
4,AACGTCACGTGGCGGT,0.04
5,AGTTACACGTGGGGTA,-0.05
6,GGATTCACGTGAGGAA,0.4
7,GTTTTCACGTGGGAAT,0.32
8,GAAGGCACGTGGTTTA,-0.25
9,TTAATCACGTGTGGGG,0.19
10,GGGAGCACGTGATATT,0.12
11,ATGGACACGTGACGGG,0.06
12,GTTCGCACGTGGTTGG,-0.05
13,AAGCTCACGTGTAGGG,0.2
14,ATTGCCACGTGAGATG,0.23
15,AATAACACGTGTGTTG,-0.03
16,TAATACACGTGGAGGG,-0.04
17,TAATTCACGTGGGCAT,0.18
18,ATCGACACGTGTGTTT,0.1
19,ATGAGCACGTGATGGT,0.01
20,AGTATCACGTGGTAGT,0.09
21,CTGTACACGTGTTTGT,-0.06
22,TAGGGCACGTGTGAAA,0
23,AGGCGCACGTGTAGAG,-0.16
24,TGTCTCACGTGTGGGG,0.21
25,CGATGCACGTGGGAGT,-0.12
26,TTTCACACGTGTCTGT,0.09

row,Sequence,relative binding free energy [kcal/mol]
1,AGTATCACGTGGAGTT,0.13
2,TCGTTCACGTGTTTGT,0.27
3,GATTTCACGTGTAGAT,0.32
4,TGATTCACGTGTAGGC,0.29
5,GCGTTCACGTGTATGT,0.23
6,CTGGACACGTGGGTGT,-0.12
7,AAGTACACGTGGGTGG,0.04
8,GTACTCACGTGGGATA,0.26
9,GGTTCCACGTGTTCGT,0.15
10,TGAAACACGTGTTGGA,0.18
11,TGGAACACGTGGAAGG,0.11
12,ATGCGCACGTGTTGGC,0.07
13,AGATGCACGTGCTAGT,-0.06
14,GTTAGCACGTGTATTG,0.11
15,ATGGTCACGTGGCGCT,0.12
16,TGTCTCACGTGTAAAG,0.39
17,GGTTTCACGTGCTTTT,0.4
18,CAGGGCACGTGGTGTC,-0.06
19,AGCAGCACGTGTTTAG,0
20,TGTGTCACGTGTGGTA,0.17
21,TGCGACACGTGGTGTG,-0.16
22,TGTGTCACGTGCAGCG,0.02
23,TTCCGCACGTGTTAGG,-0.04
24,CGGGTCACGTGGCATT,-0.02
25,CGTTACACGTGTCGGG,0.09
26,TGTACCACGTGGCGGG,-0.21

row,Sequence,relative binding free energy [kcal/mol]
1,CGGGACACGTGAGGGC,0.17
2,AGGGTCACGTGTGGGC,0.03
3,GGATTCACGTGTATAT,0.24
4,CTTTACACGTGATGTG,0.05
5,AATATCACGTGTGGCT,0.2
6,TCAGGCACGTGAGGTG,0.08
7,CTTGGCACGTGGATGG,0.01
8,GGCTACACGTGGTGGT,0
9,GATGTCACGTGTCGGT,0.1
10,TCTAGCACGTGGGGTG,-0.36
11,CGATTCACGTGTGTGG,0.27
12,GAATGCACGTGGTCTG,0.02
13,TAAGTCACGTGTGGAT,0.21
14,TCAGGCACGTGCGTTT,-0.02
15,TTTAACACGTGGGGTA,-0.16
16,CAGTGCACGTGCTGGG,0.04
17,TGGATCACGTGCGAGG,0.06
18,GTTGGCACGTGACAGG,0.08
19,GCACGCACGTGTGGTT,-0.02
20,TTTGGCACGTGGCGAG,-0.23
21,GCAGGCACGTGTTTGG,-0.09
22,TACTGCACGTGTTTGT,0.05
23,GATTGCACGTGTTTTG,0.14
24,AACGGCACGTGCTGGT,-0.13
25,CGTTTCACGTGTGATG,0.14
26,TTTGACACGTGCGGCT,0.04

row,Sequence,relative binding free energy [kcal/mol]
1,ATGTTCACGTGTTCAT,0.15
2,ATAAACACGTGGTTTG,-0.18
3,TTCTTCACGTGTTAAA,0.27
4,TAGGTCACGTGCTTAT,-0.02
5,AGCGGCACGTGAGGAG,0.1
6,TTGTGCACGTGGTATG,-0.13
7,TAGTTCACGTGTTTAA,0.32
8,CGGGGCACGTGTATGC,-0.11
9,GGGTGCACGTGTGTTG,0.07
10,GTTATCACGTGTGATA,0.1
11,AAGTTCACGTGTCATT,0.23
12,AGGTTCACGTGATGAG,0.2
13,TTTGGCACGTGAAGGG,0.14
14,TGTACCACGTGGAAGT,-0.01
15,TGTGCCACGTGATCGT,0.04
16,GGCTGCACGTGGTTTT,0.02
17,AATTACACGTGTTGGT,0.04
18,GAGGGCACGTGTGCCG,-0.06
19,TTATACACGTGGGCAT,-0.13
20,CGGTTCACGTGCTAGG,0.27
21,TAGGCCACGTGAGAGT,0.15
22,GGAAACACGTGGTGGT,-0.07
23,CTTGTCACGTGTGCGG,0.08
24,CAGTGCACGTGATTTT,0.23
25,GATGTCACGTGTTTAC,0.18
26,ATGTGCACGTGGAAAG,0.07

row,Sequence,relative binding free energy [kcal/mol]
1,GGACACACGTGGTGTT,0.04
2,GTTGACACGTGTTCTG,-0.06
3,GAAATCACGTGTCGTT,0.42
4,GTAAGCACGTGGGATA,-0.12
5,AAGAGCACGTGGTTTG,-0.07
6,AATGTCACGTGTTACG,0.14
7,AGTGACACGTGGAGTT,0.08
8,GTTTTCACGTGGATTG,0.37
9,TTCTGCACGTGTGTAT,0.03
10,ATAGACACGTGTAAGG,0.07
11,TGACGCACGTGTATGG,-0.16
12,TTTCACACGTGTAAGG,0.15
13,GTGTACACGTGGGGCA,-0.16
14,CGTATCACGTGCTGTG,0.1
15,GATTACACGTGTTTGT,0.08
16,TGTGACACGTGTTTAA,0.12
17,GGATGCACGTGGGCGT,-0.19
18,GGGACCACGTGTGAGG,0.21
19,CTGTTCACGTGGCATG,0.12
20,ATGGGCACGTGGGCAC,-0.22
21,TTTTTCACGTGGCCAG,0.34
22,TTAGGCACGTGCTGGC,-0.15
23,TCTGGCACGTGTGGAA,-0.03
24,TTGGCCACGTGGTGGA,-0.06
25,TCACGCACGTGTGTGT,-0.12
26,TAGTTCACGTGAGGCG,0.4

row,Sequence,relative binding free energy [kcal/mol]
1,TATGTCACGTGTACAT,-0.03
2,ACTTCCACGTGTGGTT,0.17
3,AATGGCACGTGGTAGG,-0.24
4,AGGTTCACGTGTCGGC,0.34
5,AGCAACACGTGTTTGT,0.02
6,GGGGGCACGTGGAATG,0.02
7,TGATGCACGTGGGAGT,0.03
8,TCGGGCACGTGAGAGG,0.24
9,GTCTTCACGTGGGGGA,0.12
10,GTACTCACGTGCGGGT,0.11
11,ACGTTCACGTGAGAGG,0.31
12,TAGAGCACGTGGGTGT,-0.2
13,GGATACACGTGTCGGG,0.26
14,GGGGACACGTGGGCAG,-0.1
15,CTGGGCACGTGAGTGT,0.09
16,GTTAACACGTGGCATT,0
17,TGTATCACGTGGCGGC,0.08
18,TTCAACACGTGGGGTC,-0.06
19,CAGGTCACGTGTTTAT,0.2
20,TAAGGCACGTGGCTTT,-0.2
21,GTAGTCACGTGAGGTC,0.25
22,ATGGACACGTGTAGGT,0.1
23,TGGCACACGTGTTCTG,0.1
24,ACTTGCACGTGTGATT,0
25,CAGTGCACGTGTATGT,-0.17
26,TTGATCACGTGGCATA,0.15

row,Sequence,relative binding free energy [kcal/mol]
1,AGGAACACGTGATTTT,0.17
2,ATGAGCACGTGGGTCT,-0.25
3,TGGTTCACGTGCATAG,0.15
4,TGGTGCACGTGGGGAT,-0.1
5,TTTTACACGTGACATT,0.27
6,AGTGCCACGTGGGGAG,-0.16
7,CTTGGCACGTGGGTAT,-0.32
8,CATGTCACGTGAGTAT,0.32
9,CTAGGCACGTGTCGTG,-0.09
10,TTAAGCACGTGCTGTA,-0.24
11,TTGGTCACGTGCGTTC,0.18
12,TTGTGCACGTGAGCGG,0.14
13,GTCTTCACGTGAAGTA,0.5
14,GTTGACACGTGGTGTG,-0.08
15,TTAAGCACGTGGGGAA,-0.07
16,GAATGCACGTGTTATT,0.15
17,ATGGACACGTGCTGGA,0
18,TCGGGCACGTGCTGTG,-0.17
19,AGAGACACGTGTCGGG,0
20,GTGATCACGTGGGTAT,0.07
21,GCCGTCACGTGGGGCG,0.02
22,AATTGCACGTGCGATG,-0.08
